Laboratory results taken from the RNAGym collection of RNA variant scans (doi:10.1093/nar/gkz1192).
Read counts are not given, so values of variants with three or more changes are uncertain.

B1: CPEB3 Ribozyme (parent)
chain: UAACAGGGGGCCACAGCAGAAGCGUUCACGUCGCAGCCCCUGUCAGAUUCUGGUGAAUCUGCGAAUUCUGCUGUAUAUCUC

Variants of: B1
Assay: self-cleavage, relative activity (ratio to wild type); higher = more cleavage; in vitro, sequencing
Method in brief: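 Barcoded CPEB3 ribozyme mutants, produced by rounds of error-prone PCR, self-cleaved while being transcribed with T7 RNA polymerase for 5 hours at 37°C and during a subsequent 15 min DNase I step before EDTA was added. Sequencing of template-switched cDNA on Illumina gave cleaved and total reads, and DNA sequencing assigned barcodes to variants. Each variant's relative activity is its cleaved/total read fraction divided by the unmutated ribozyme's fraction, averaged across three batches. A variant needed a minimum of 5 reads.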

| Variant | self-cleavage |
| --- | --- |
| UAACAGGGGGCCACAGCAGAAGCGUUCAGGUCGCAGCCCCUGUCAGAUUCUGGUGAAUCUGCGAGUUCUGCAGUAUAUCUC [C29G A65G U72A] | 0.17 |
| UAACAGGGGGCCACAGCAGAAGCGUUCAGGUCGCAGCACCUGUCAGAUUCUGGUGAAUCUGCGUAUUCUGCUGUAUAUCUC [C29G C38A A64U] | 0.21 |
| UAACAGGGGGCCACAGCAGAAGCGUUCAGGUCGCAGCUCCUGUCAGAUUCUGGUGAAUCUGCGAAUUCUGCUGUAUACCUC [C29G C38U U78C] | 0.17 |
| UAACAGGGGGCCACAGCAGAAGCGUUCAGGUCGCAGCCUCUGUCAGAUUCCGGUGAAACUGCGAAUUCUGCUGCAUAUCUC [C29G C39U U51C U58A U74C] | 0.06 |
| UAACAGGGGGCCACAGCAGAAGCGUUCAGGUCGCAGCCCCUGUAAGAUUCUGGUGAAUCUGCGAAUUCCGCUGCAUAUCUC [C29G C44A U69C U74C] | 0.33 |
| UAACAGGGGGCCACAGCAGAAGCGUUCAGGUCGCAGCCCCUGUCAGAUUCUGGUGAAUCUGAGAGUUCUGCUGUAUAUCUC [C29G C62A A65G] | 0.34 |
| UAACAGGGGGCCACAGCAGAAGCGUUCAGGUCACAGCCCCUGACAGAUUCUGGUGAAUCUGCGAAUUCUGCUGUAUAUCUC [C29G G33A U43A] | 0.36 |
| UAACAGGGGGCCACAGCAGAAGCGUUCAGGUCGCAGCCCCUGUCAGAUUCUAGUGGAUCUGCGAACUCUGCUGUAUAUCUC [C29G G52A A56G U66C] | 0.14 |
| UAACAGGGGGCCACAGCAGAAGCGUUCAGGCCGCAGCCCCCGUCAGGUUCCGGUGGAUCUGCGAGUUCUGCUGUAUAUCUC [C29G U31C U41C A47G U51C A56G A65G] | 0.42 |
| UAACAGGGGGCCACAGCAGAAGCGUUCAGGUCGCAGCCCCAGUCAGUUUCUGGUGAAUCUGCGGAUUCUGCUGUAUACCUC [C29G U41A A47U A64G U78C] | 0.05 |
| UAACAGGGGGCCACAGCAGAAGCGUUCAGGUCGCAGCCCCAGUCAGAUUCAGGUGAAUCUGCGAAUUCUGCCGUAUAUCUC [C29G U41A U51A U72C] | 0.08 |
| UAACAGGGGGCCACAGCAGAAGCGUUCAGGUCGCAGCCCCCGUCAGACUCCGGUGAAUCUGCGGAUUCUGCAGUAUAUCUC [C29G U41C U48C U51C A64G U72A] | 0.08 |
| UAACAGGGGGCCACAGCAGAAGCGUUCAGGUCGCAGCCCCCGUCAGAUUCAGGUGAAUCUGCGAAUUCUGCUGUAUAUCUG [C29G U41C U51A C81G] | 0.12 |
| UAACAGGGGGCCACAGCAGAAGCGUUCAGGUCGCAGCCCCUGCCAGAUUCUGGUGAAUCAGCGAAUUCUGCGGUAUACCUC [C29G U43C U60A U72G U78C] | 0.07 |
| UAACAGGGGGCCACAGCAGAAGCGUUCAGGUCGCAGCCCCUGUCAGAUCCUGGAGAAUCUGCGAAUCCUGCUAUAUAUCUC [C29G U49C U54A U67C G73A] | 0.06 |
| UAACAGGGGGCCACAGCAGAAGCGUUCAGGUCGCAGCCCCUGUCAGAUUCUGGAGCAUCUGCGAAUUCUGCUGUAUAUCUC [C29G U54A A56C] | 0.1 |
| UAACAGGGGGCCACAGCAGAAGCGUUCAGGUCGCAGCCCCUGUCAGAUUCUGGCGAAUCUGCGAACUCUGCUGUAUAUCUC [C29G U54C U66C] | 0.09 |

| Variant | self-cleavage |
| --- | --- |
| UAACAGGGGGCCACAGCAGAAGCGUUCAGGUCGCAGCCCCUGUCAGAUUCUGGUGAACCUGCGAAUUCUGCCGUACAUCUC [C29G U58C U72C U76C] | 0.09 |
| UAACAGGGGGCCACAGCAGAAGCGUUCAGGUCGCAGCCCCUGUCAGAUUCUGGUGAAUCAGCGAAUUCUGCAGUAUAUCUC [C29G U60A U72A] | 0.1 |
| UAACAGGGGGCCACAGCAGAAGCGUUCAUGUCGCCGCCACUGUCAGAUUCUGGUGACUCAGCGAAUUCUGCGGUAUAUCUC [C29U A35C C39A A57C U60A U72G] | 0.08 |
| UAACAGGGGGCCACAGCAGAAGCGUUCAUGUCGCGGCCCCUGUCGGAUUCUGGUGAAUCUGCGAAUUCUGCGGUAUAUCUC [C29U A35G A45G U72G] | 0.97 |
| UAACAGGGGGCCACAGCAGAAGCGUUCAUGUCGCGGCCCCUGUCAGAUUCUGGUGAUUCUGCGAAUUCUGCUGUAUAUCUC [C29U A35G A57U] | 0.35 |
| UAACAGGGGGCCACAGCAGAAGCGUUCAUGUCGCGGCCCCUGUCAGAUUCUGGUGAAUCUGCGGAUACUGCUGUAUAUCUC [C29U A35G A64G U67A] | 0.32 |
| UAACAGGGGGCCACAGCAGAAGCGUUCAUGUCGCGGCCCUAGUCAGAUUCCGGAGGAUCUGCGAAUUCUGCUGUAUAUCUC [C29U A35G C40U U41A U51C U54A A56G] | 0.11 |
| UAACAGGGGGCCACAGCAGAAGCGUUCAUGUCGCGGCCCCUGUCAGAUUCUGGUGAAUCUGCGAAUUCUCCUGUAUAUCAC [C29U A35G G70C U80A] | 0.2 |
| UAACAGGGGGCCACAGCAGAAGCGUUCAUGUCGCGGCCCCUGCCAGAUUCUGGUGAAUCUGCGAGUUCCGCUGUAUAUCCC [C29U A35G U43C A65G U69C U80C] | 0.08 |
| UAACAGGGGGCCACAGCAGAAGCGUUCAUGUCGCGGCCCCUGUCAGAUUCUGGCGAGUCUGCGAAUUCUGCUGUAUAUCUC [C29U A35G U54C A57G] | 1.1 |
| UAACAGGGGGCCACAGCAGAAGCGUUCAUGUCGCGGCCCCUGUCAGAUUCUGGUGAAUCCGCGAAUUCUGCUGUAUAUCUC [C29U A35G U60C] | 0.38 |
| UAACAGGGGGCCACAGCAGAAGCGUUCAUGUCGCGGCCCCUGUCAGAUUCUGGUGAAUCCGCGAGUUCUGCUGUAUAUCUC [C29U A35G U60C A65G] | 0.16 |
| UAACAGGGGGCCACAGCAGAAGCGUUCAUGUCGCUGCCCCUGUCAGAUUCUGGUGAGUCUGCGAAUUCUGCUAUAUAUCUC [C29U A35U A57G G73A] | 0.15 |
| UAACAGGGGGCCACAGCAGAAGCGUUCAUGUCGCUGGCCCGGUCAGAUUCAGGUGAAUCUGCGAAUUCUGCUGUAUAACUC [C29U A35U C37G U41G U51A U78A] | 0.09 |
| UAACAGGGGGCCACAGCAGAAGCGUUCAUGUCGCUGCCCCUGUCAGAUUCUGGUGAAUCUGCGAACUCUGCUGUAUAUCAC [C29U A35U U66C U80A] | 0.06 |
| UAACAGGGGGCCACAGCAGAAGCGUUCAUGUCGCAGCCCCUGUCCGGUUCUGGCGAAUCAGCGAUUUCUGCUGUAUAUCUC [C29U A45C A47G U54C U60A A65U] | 0.18 |
| UAACAGGGGGCCACAGCAGAAGCGUUCAUGUCGCAGCCCCUGUCCGACUCUGGUGAAUCUGCGAAUUCUGCAGUAUAUCUC [C29U A45C U48C U72A] | 0.1 |
